≈ marks a conversion by molar mass, not a printed value. Where “and” joins values, the source holds several entries; their conditions need not be identical. Equal values may be shown once. Read-outs that look alike come from different tables or passages of the source.
What was measured:
HIV-1RF = assay: in vitro anti-HIV cytoprotection, HIV-1RF in CEM-SS; format: cell-based; details: for EC50: Human immunodeficiency virus 1, CEM-SS
MCF7 cell line = assay: NCI 60 cell line panel, MCF7; details: Homo sapiens
[1] = tested on: viruses containing mutations in RT codons affecting NNRTIs; assay: activity against viruses with NNRTI resistance mutations; format: cell-based, HIV
PMBC's = assay: growth inhibition of PBMC's in anti-HIV test; format: cell-based; details: Homo sapiens
HIV-1 DPS = assay: in vitro anti-HIV activity, HIV-1 DPS; format: cell-based; details: Human immunodeficiency virus 1
[2] = tested on: HIV in monocytes/macrophages (Mono/Mac's); assay: in vitro anti-HIV activity in monocytes/macrophages; format: cell-based, HIV-1
[3] = tested on: athlelet's foot fungal infection; assay: oral administration to inventor, athlete's foot; format: in vivo, human; details: 3×1 mg per day for three days, one person
HIV-11118 = assay: microbe, parasite or virus in culture; format: cell-based, HIV-1; details: Human immunodeficiency virus 1
[4] = stability in hydrochloric acid; format: physicochemical; details: for loss of parent compound: 37° C.
Protocol: In 0.1 N HCl, only 10% degradation was observed after 24 hours. Loss of PMZ-1 was associated with the appearance of an earlier eluting peak.

gp120-CD4 = target: T1, gp120-CD4 (UniProt P01730+P03375); assay: gp120-CD4 binding, antigen-capture ELISA
T1 construct: purchased DuPont
Protocol: (§1) The binding of gp120 to CD4 was analyzed using an antigen-capture enzyme-linked immonosorbent assay (ELISA) from DuPont. All steps off the assay were carried out according to the manufacturer's protocols. The effect of the drugs on the in vitro activity recombinant reverse transcriptase (RT) was determined by a previously described method (Buckeit and Swanstron, AIDS RES HUMAN RETROVIRUSES, 7, 295-302, 1991). The assay measures the incorporation of (^3 H)-TTP to the artificial poly (rA): oligo (dT) or poly (rC): oligo (dG) homopolymer primer/template. Samples (5 μl) were blotted to DE81 paper, washed extensively with 5% dibasic sodium phosphate and then quantified on a Packard Matrix 9600 Direct Beta Counter. The compound 3'-Azido-3'deoxythymidine-5'-triphosphate served as a positive control for the inhibition for RT; and the absence of RT served as negative control.

[5] = stability of solutions and solid; format: physicochemical
Protocol: It is very soluble in propylene glycol (PG), polyethylene glycol (PEG) 400 and soybean oil. These solvents may be useful in formulating cosolvents suitable for pharmaceutical applications. The ethanolic solutions has UV absorptions in the 290-300 nm range, useful for analytical work. Aqueous solutions for analytical work were prepared in HPCD and diluted with water to the required concentrations. The stock solutions were stable when incubated for 48 hours at 37° C. and when stored at room temperature.
Stock solutions in ethyl acetate have been used for TLC work over 8 months without decomposition.

[6] = tested on: 2',3'-dideoxy-inosine (ddl) mutants; assay: activity against ddI mutants; format: cell-based, HIV
HIV-1 AZT^sen = assay: in vitro anti-HIV activity, AZT sensitive HIV-1; format: cell-based
[7] = target: T2, HIV-1 reverse transcriptase (Human immunodeficiency virus type 1 group M subtype B, UniProt P04585); assay: inhibition of recombinant reverse transcriptase, (3H)-TTP incorporation; format: biochemical
T2 construct: in vitro activity recombinant reverse transcriptase (RT)
Protocol: as §1

HIV-1 N119 = assay: in vitro anti-HIV activity, HIV-1 N119; format: cell-based; details: Human immunodeficiency virus 1
HIV-1 A17 = assay: in vitro anti-HIV activity, HIV-1 A17; format: cell-based; details: Human immunodeficiency virus 1
[8] = i.v., 20 mg/kg, PEG 400:water (50:50)

SMILES: COc1c(O)cc(C2COc3cc(O)cc(O)c3C2=O)cc1CC=C(C)C (racemic) [PMZ-1]
- protection of the CEM-SS (HIV-1RF): good protection
- EC50 (HIV-1RF; CEM-SS): 110 nM
- EC50 (HIV-1RF; NCI AIDS anti-viral screen): 100 nM
- bioavailability after i.p. and s.c. administration (pharmacokinetics in mice; mice, i.p. and s.c., 50-100 mg/kg): some bioavailbility
- elimination from plasma (pharmacokinetics in mice; mice, i.v.): eliminated rapidly
- drug elimination compared with HPCD vehicle (pharmacokinetics in mice; mice, i.v., 20 mg/kg, PEG 400:water): much faster
- presence in liver, kidneys and small intestine (pharmacokinetics in mice; mouse, i.v., 10 mg/kg, first 60 minutes): detected readily
- oral bioavailability (pharmacokinetics in mice; oral): very low
- compound found in the GI tract (pharmacokinetics in mice; oral, 250 mg/kg): substantial compound found in the GI tract
- presence in urine (pharmacokinetics in mice; parenteral and non-parenteral administration): present in the urine
- first-pass metabolism (pharmacokinetics in mice; possible metabolite peak in plasma after oral administration): suggestive of first-pass metabolism
- concentration (pharmacokinetics in mice; read-out: drug plasma concentration, mice, i.v., 20 mg/kg, PEG 400:water, 5 minutes): 41 µM
- concentration (pharmacokinetics in mice; read-out: plasma level at 180 minutes, mice, i.v., HPCD, 50 mg/kg, 180 minutes): 0.3 µM
- GI50 (MCF7 cell line; MCF7): < 0.025 µg/mL
- CC50 (MCF7 cell line; MCF7, read-out: LC50): 16.8 µg/mL (≈ 45.4 µM)
- activity against viruses with NNRTI mutations [1]: weak activity
- IC50 (PMBC's): 48000 nM
- EC50 (HIV-1 DPS): 980 nM
- activity in Mo/Mo assays [2]: active
- EC50 ([2]; Human immunodeficiency virus 1, Mono/MAC's): 200 nM
- EC50 ([2]; Human immunodeficiency virus 1, monocytes/macrophages): < 1000 nM
- appearance after toxicity (mice; 100 mg/kg in HPCD, 2 hours after drug): appear normal
- CNS toxicity (mice; [8]): disorientation
- seisures (mice; [8]): no seisures
- neurotoxicity (mice; i.v., 100 mg/kg in HPCD): neurotoxicity
- effect on athlelet's foot fungal infection [3]: total cure
- EC50 (HIV-11118): 160 nM
- rate of degradation ([4]; 0.1 N HCl, 60° C., 3 hours, vs 1.0 N HCl): slower
- degradation ([4]; 0.1 N HCl, 24 hours): 10%
- loss of parent compound ([4]; 1.0 N HCl, 3 hours): 20%
- loss of parent compound ([4]; 1.0 N HCl, 24 hours): 90%
- PMZ-1 not degraded ([4]; 1.0 N HCl, 60° C., 3 hours): 5%
- gp 120-CD4 Binding (gp120-CD4): No Binding
- stability of stock solutions ([5]; 48 hours at 37° C. and room temperature, aqueous HPCD): stable
- stability of ethyl acetate stock solutions ([5]; TLC, without decomposition): over 8 months
- stability at room temperature ([5]; several months, TLC): stable at room temperature for several months
- activity against ddI mutants [6]: active
- activity against azidothymidine sensitive virus (HIV-1 AZT^sen; AZT^sen): active
- EC50 (HIV-1 AZT^sen; Human immunodeficiency virus 1, HIV-1 AZT^sen): 130 nM
- IC50 ([7]; ID50, RT, template/primer rA/dT): 3000 nM and 1200 nM and 4800 nM
- IC50 ([7]; ID50, RT, template/primer rC/dG): 43 nM
- IC50 ([7]; ID50, inhibition of RT activity in virons, rC/dG, Table 8): 72 nM
- EC50 (HIV-1 N119): 23000 nM
- EC50 (HIV-1 A17): 4200 nM

— patent publication US6258839A, “Isolation of naturally occuring isoflavanone and some clinical uses thereof” (priority 1997, dated 2001)
